The other results are listed elsewhere or left out. Shown are side measurements of this screen, not its main read-out; they come without a call.
Key:
Test in all cases: Primary Screen for Target Class Profiling of Small Molecule Inhibitors of Methyltransferases
[1] = molecular target: Glycine N-methyltransferase (Homo sapiens) (UniProt Q14749); conditions: purified enzyme, MTase-Glo SAH luminescence; measured here: GNMT inhibition; at 40 µM; stronger effect = lower value
Description: (§1) PI: Matthew D. Hall Ph.D. and Quinlin M. Hanson Ph.D.
(§2) National Center for Advancing Translational Sciences (NCATS)
(§3) National Institute of Health (NIH), Rockville, MD
(§4) Target class profiling (TCP) is a chemical biology approach amenable to investigating understudied biological targets. TCP is achieved by developing a generalizable assay platform and applying it to screen a curated set of compound libraries against representative members of a target class. Small molecule methyltransferases (SMMTase) are a subclass of methyltransferase that act on metabolites to modulate signaling pathways, metabolize xenobiotics, or balance the available methyl pool. We screened four curated libraries totaling 27,574 unique compounds against the SMMTases nicotinamide N-methyltransferase (NNMT), phenylethanolamine N-methyltransferase (PNMT), histamine N-methyltransferase (HNMT), glycine N-methyltransferase (GNMT), catechol O-methyltransferase (COMT), and guanidinoacetate N-methyltransferase (GAMT). The data generated by this TCP can be leveraged for informed tool molecule development. For example, in the associated publication we identified a chemotype of HNMT-selective inhibitors. Additionally, we identified a putative SMMTase-selective inhibitor with potential as a tool molecule for studying broader methyltransferase biology.
(§5) High-through put screening assays were developed at the National Center for Advancing Translational Science (NCATS) for the enzymes NNMT, PNMT, HNMT, GNMT, COMT, and GAMT. Enzymatic activity was measured as a function of SAM cofactor conversion using the MTase Glo kit (Promega) for all enzymes. All assays were performed in 1536-well format with substrates and SAM concentrations at KM values. Enzyme concentration and assay timing were optimized for 10-20% SAM conversion. Initial screening of 27,574 compounds was done as single-point assays using the highest compound concentration (40 uM). […] These compounds were replated in 11-point dose response and assayed against NNMT, PNMT, HNMT, GNMT, COMT, GAMT, and a counter-assay. The IC50 and efficacy (maximal response) values were determined for each dose-response curve. These values are also accounted for in the area under the curve (AUC) values.
(§6) PROTOCOL TABLE (as described by Inglese J, Shamu CE and Guy RK. 2007)
(§7) SEQUENCE No. (e.g., 1, 2, 3, etc.); […] (e.g., Cells, Incubation, Reagent, etc.); VALUE; DESCRIPTION.
(§8) 1; Reagent; 2 uL; SMMTase Enzyme (2x) in reaction buffer, columns 1- 48.
(§9) 2; Reagent; 1 uL; SAM (4x) in reaction buffer, columns 1-48.
(§10) 3; Controls; 23 nL; DMSO in column 4; sinefungin in DMSO (0 uM - 40 uM) in 7-point 1:2 dilution series (n = 2) in column 2.
(§11) 4; Compounds; 23 nL; Columns 5-48.
(§12) 5; Reagent; 1 uL; Substrate (4x) in reaction buffer, columns 2-48.
(§13) 6; Time; 20-30 min; Incubation.
(§14) 7; Reagent; 1 uL; MTase-Glo reagent (5X), columns 1-48.
(§15) 8; Time; 30 min; Incubation.
(§16) 9; Reagent; 5 uL; MTase-Glo Detection reagent, columns 1-48.
(§17) 10; Time; 30 min; Incubation, luminescence evolution.
(§18) 11; Detection; Luminescence; ViewLux uHTS Microplate Imager (PerkinElmer).
(§19) NOTES (numbers refer to Sequence numbers above)
(§20) 1, 2, 5. White Medium Binding Greiner 1536-well plates (Cat #789175-F, Greiner Bio-One, Monroe, NC); Reaction buffer: 50 mM Tris, pH 8.0, 3 mM MgCl2, 1 mM EDTA, 50 mM NaCl, 1 mM DTT, and 0.1 mg/mL BSA. Evaporation was prevented by covering assay plates with metal lids containing holes to allow gas diffusion.
(§21) 1. Six SMMTase were profiled: HNMT, GNMT, PNMT, COMT, NNMT, GAMT
(§22) 5. The corresponding substrate was used for each enzyme: HNMT - 5.3 uM Histamine; GNMT - >500 uM Glycine; PNMT - 16.2 uM Norephinephrine; COMT - 13.7 uM Norephinephrine; NNMT - 3.8 uM Nicotinamide; GAMT - 2.5 uM Guanidinoacetate.6, 8, 10. Room temperature
(§23) 6. Final reaction conditions: 10 nM COMT, 5 uM SAM, 15 uM norepinephrine, 50 mM Tris, pH 8.0, 3 mM MgCl2, 1 mM EDTA, 50 mM NaCl, 1 mM DTT, and 0.1 mg/mL BSA; refer to tables 2 and S1 for specific timing.
8. […]

[2] = molecular target: Guanidinoacetate N-methyltransferase (Homo sapiens) (UniProt Q14353); conditions: purified enzyme, MTase-Glo SAH luminescence; measured here: GAMT inhibition; at 40 µM; stronger effect = lower value
Description: as §1, §2, §3, §4, §5, §6, §7, §8, §9, §10, §11, §12, §13, §14, §15, §16, §17, §18, §19, §20, §21, §22, §23
8. […]

[3] = molecular target: Histamine N-methyltransferase (Homo sapiens) (UniProt P50135); conditions: purified enzyme, MTase-Glo SAH luminescence; measured here: HNMT inhibition; at 40 µM; stronger effect = lower value
Description: as §1, §2, §3, §4, §5, §6, §7, §8, §9, §10, §11, §12, §13, §14, §15, §16, §17, §18, §19, §20, §21, §22, §23
8. […]

[4] = molecular target: Nicotinamide N-methyltransferase (Homo sapiens) (UniProt P40261); conditions: purified enzyme, MTase-Glo SAH luminescence; measured here: NNMT inhibition; at 40 µM; stronger effect = lower value
Description: as §1, §2, §3, §4, §5, §6, §7, §8, §9, §10, §11, §12, §13, §14, §15, §16, §17, §18, §19, §20, §21, §22, §23
8. […]

[5] = molecular target: Phenylethanolamine N-methyltransferase (Homo sapiens) (UniProt P11086); conditions: purified enzyme, MTase-Glo SAH luminescence; measured here: PNMT inhibition; at 40 µM; stronger effect = lower value
Description: as §1, §2, §3, §4, §5, §6, §7, §8, §9, §10, §11, §12, §13, §14, §15, §16, §17, §18, §19, §20, §21, §22, §23
8. […]
On the % scale 0 is the no-effect control and ±100 the full control effect.

| Structure (SMILES) | activity change, negative = inhibition [1] | activity change, negative = inhibition [2] | activity change, negative = inhibition [3] | activity change, negative = inhibition [4] | activity change, negative = inhibition [5] |
| --- | --- | --- | --- | --- | --- |
| CCOCCCNc1nc2c(-c3ccccc3)nnn2c2ccccc12 | -0.151% | -1.03% | -2.21% | -5.37% | -7.95% |
| CN1CCN(CC(=O)N2c3ccccc3C(=O)Nc3cccnc32)CC1 | 2.82% | 7.57% | 12.5% | -13.2% | -7% |
| CC(CN1C(=O)c2cc3sccc3n2CC1(C)C(=O)NC1CCCCC1)c1ccccc1 (configuration not stated) | -0.911% | 4.68% | 0.638% | 2.14% | -2.34% |
| Cc1ccc(CN2C(=O)c3cc(-c4ccco4)nn3CC2(C)C(=O)NC2CCCCC2)cc1 (configuration not stated) | -11.6% | 0.474% | -6.16% | -5.95% | -7.1% |
| O=C(c1ccsc1)N1CCC2(CCC2N2CCOCC2)CC1 (configuration not stated) | -1.38% | -1.95% | -0.059% | -2.61% | 2.18% |
| Cc1cccc(N2CCN(CCNC(=O)CCc3nnc4n(C)c(=O)c5ccccc5n34)CC2)c1C | -1% | 0% | 5.48% | -2.77% | -0.493% |
| CCc1cc2c(cc3n2CC(C)(C(=O)NC2CCCCC2)N(Cc2ccccc2OC)C3=O)s1 (configuration not stated) | -0.955% | 3.55% | 3.49% | 0.713% | -2.18% |
| Cc1c(C(=O)Nc2ccc(N3CC(C)OC(C)C3)nc2)cccc1-c1ccc(OC(F)(F)F)cc1 (configuration not stated) | -10.4% | – | 2.32% | – | – |
| O=C(C1CC1)N1CCOc2ccc(CN3CCCC3)cc2C1 | -3.56% | -0.57% | -28.6% | -4.48% | -8.09% |
| COc1ccc(OC)c(NC(=O)N2CCn3c(C)ccc3C2C(C)C)c1 (configuration not stated) | 13.1% | 0% | 3.7% | -3.57% | 2.81% |
| CCNC1(C(N)=O)CN(c2nc(C)nc3c(-c4ccc(Cl)cc4)c(-c4ccccc4Cl)nn23)C1 | -42% | -9.23% | 3.95% | -35.9% | 0.889% |
| CCc1cc2c(cc3n2CC(C)(C(=O)NC2CCCCCC2)N(CCN2CCCCCC2)C3=O)s1 (configuration not stated) | 0.156% | 4.78% | -16.8% | -15.2% | -4.01% |
| COc1cc(Cl)c(C)cc1N1C(=O)CSc2c(c3ccccc3n2C)C1C(=O)NCc1ccccc1 (configuration not stated) | 6.27% | 4.17% | 4.13% | 2.96% | 0.182% |
| O=C1CC2(CCN(S(=O)(=O)c3cccs3)CC2)Oc2ccccc21 | -6.83% | -2.12% | 0.155% | -19.1% | -7.03% |
| O=C(NCC(=O)N1CCOCC1)c1cccc(-c2ccsc2)c1 | -0.15% | -0.889% | -0.958% | -0.515% | -2.71% |
| CC1(C(=O)NC2CCCCCCC2)Cn2c(cc3sccc32)C(=O)N1CCCN1CCCCC1 (configuration not stated) | 5.76% | 2.26% | -3.77% | 4.48% | 5.13% |
| CC1(C)CC[C@]2(CO[C@@H]3O[C@H](CO)[C@@H](O)[C@H](O)[C@H]3O)[C@@H](O)C[C@]3(C)C(=CCC4[C@@]5(C)CC[C@H](O[C@@H]6O[C@H](CO[C@@H]7O[C@H](CO[C@@H]8OC[C@@H](O)[C@H](O)[C@H]8O)[C@@H](O)[C@H](O)[C@H]7O)[C@@H](O)[C@H](O)[C@H]6O)C(C)(C)C5CC[C@]43C)[C@@H]2C1 (some centres not stated) | -6.38% | -12.2% | 0.423% | -17.7% | -1.62% |
| COc1cccc(-c2ccc(NC(=O)C3CCCN3Cc3cnn(C)c3)cc2)c1 (configuration not stated) | -6.07% | -5.33% | -3.86% | -12.6% | -7.17% |
| Cn1c(=O)c2c(ncn2CC2OCCO2)n(C)c1=O | 4.79% | 2.57% | 7.46% | -9.14% | 3.35% |
| CC1CCC2(C(=O)OC3OC(CO)C(O)C(O)C3O)CCC3(C)C(=CCC4C5(C)CCC(O)C(C)(CO)C5CCC43C)C2C1(C)O (configuration not stated) | 0% | 3.45% | 5.05% | -9.39% | 7.12% |
| CC(CCC1(O)OC2CC3C4CCC5CC(O[C@@H]6O[C@H](CO)[C@@H](O)[C@H](O)[C@H]6O[C@@H]6O[C@@H](C)[C@H](O)[C@@H](O)[C@H]6O)C(O)CC5(C)C4CCC3(C)C2C1C)CO[C@@H]1O[C@H](CO)[C@@H](O)[C@H](O)[C@H]1O (some centres not stated) | 0.436% | -1.1% | 5.23% | -11.8% | -4.06% |
| CN(C)C/C=C/C(=O)Nc1cccc(C(=O)Nc2cccc(Nc3ncc(Cl)c(-c4c[nH]c5ccccc45)n3)c2)c1 | -91.1% | -24.5% | -27.2% | -74.6% | -18.5% |
| CCCn1ncnc1C(C)Nc1cc(C(C)C)nc2cc(C)nn12 (configuration not stated) | -7.98% | -11.7% | -6.13% | -18% | -0.749% |
| Cc1noc(C)c1C(=O)N1CC(n2cc(COCc3ccccc3)nn2)C1 | -1.52% | -0.877% | 1.05% | -4.01% | 1.38% |
| Cc1ccc(C)c(N2CCN(C(=O)CCc3nnc4n(CCC(C)C)c(=O)c5ccccc5n34)CC2)c1 | -7.13% | 0% | 4.39% | -1.55% | -3.38% |
| CCCC1c2ccc(C)n2CCN1C(=O)Nc1cc(Cl)ccc1OC (configuration not stated) | -14.7% | -0.354% | -17.6% | -5.5% | -9.83% |
| O=C(NCC(O)CO)c1ccc(OC2CCN(CCc3ccccc3)CC2)cc1 (configuration not stated) | -7.81% | -11.3% | -8.32% | -10.3% | 0.857% |
| CC1(C(=O)NC2CCCCC2)Cn2c(cc3occc32)C(=O)N1Cc1cccs1 (configuration not stated) | -0.663% | 7.05% | 0.135% | -4.14% | -0.058% |
| COCCCN1C(=O)c2ccc(-c3ccco3)n2CC1(C)C(=O)NCc1ccccc1 (configuration not stated) | 1.28% | 4.21% | 3.72% | 1.67% | -1.88% |
